Source: the RNAGym collection of RNA variant scans (doi:10.1073/pnas.2313332121)
Variants at the background level are over-represented here.

B1: TPR 5TU (parent)
chain: GGAUCUUCUCGAUCUAACAAAAAAGACAAAUCUGCCACAAAGCUUGAGAGCAUCUUCGGAUGCAGAGGCGGCAGCCUUCGGUGGCGCGAUAGCGCCAACGUUCUCAACUAUGACACGCAAAACGCGUGCUCCGUUGAAUGGAGUUUAUCAUG

Variants of: B1
Experiment: polymerase ribozyme fitness, log enrichment relative to wild type (log ratio); higher = more active; in vitro selection for triplet polymerase activity
Outline: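 Libraries of mutants in each subunit of a heterodimeric triplet polymerase ribozyme were generated by PCR and transcribed. In triplicate, each went through one in vitro selection round: annealing with biotinylated primer, partner subunit and triplets; frozen incubation at −7 °C; gel excision of extended constructs; streptavidin-bead capture; RT-PCR. Fitness, taken from Illumina sequencing of input and output libraries, is the logarithm of a genotype's enrichment over wild-type enrichment, averaged across replicates with inverse-variance weights. The logarithm is base 2, and genotypes needed ≥10 input reads and ≥1 read per output to be kept.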

Variant | polymerase ribozyme fitness (log ratio)
A20C C27G U44C G46U C57A A110U | ≤ -4.2
A19U C36G A37U G71C C85U | ≤ -4.2
C18G G50A C96U A115G C116G | ≤ -4.2
A20C G94A G136U | -3.83
C18U A73U A89U A91G A113C | ≤ -4.2
C18U A19U A64G A89G A119U U146C | ≤ -4.2
A19U C96G A122U | -0.445
A19U C38U A64C C69U C79U G92A C123U C129G | ≤ -4.2
A20C C51U C54G C76U C93A | ≤ -4.2
C18U U53G G92U A115G C149G | ≤ -4.2
A20C A21C A26U A52G C75U C85A A98G U111A U151A | ≤ -4.2
A20C A49C C79A G80A G92U A138U | ≤ -4.2
A19C U55A A91G | -2.67
A19G U90G | ≤ -4.2
C18G G34U C57U C96U A147U | -2.53
A19C A22G G46A C95A U101C C125U G140C | ≤ -4.2
A19U C32A C105G A147C | ≤ -4.2
A19U G48A G88U G92C C125U A138U G143C | ≤ -4.2
C18U U56A G86C A138U | ≤ -4.2
C18U C27A U31G G50U C87A G133C G141A U144G | ≤ -4.2
C18G A29C G50C U56A G83A U101G A122U C125U U127G | ≤ -4.2
A19G U33C A49C C54U G81A C87U | ≤ -4.2
A20C G86A | -2.24
A19G A91U C96U | ≤ -4.2

Variant | polymerase ribozyme fitness (log ratio)
A19U A21C A29C G50A C93G C95A C103U U148A | ≤ -4.2
C18G A23U A24C C54G C95U G126A U146C | ≤ -4.2
C18G A21C G42U U78A A91G U101G | ≤ -4.2
A19U A26C G59A C72G C93A A98U U130A U144G | ≤ -4.2
C18G C36G G68A G92A C105G | ≤ -4.2
A19U A22U C32A | ≤ -4.2
A19U G48C C75U U77C C93G A122U A150C | ≤ -4.2
C18U A29U A40G A41C A52G U109C | ≤ -4.2
C18G A22C C51U G83A G92A A150C | ≤ -4.2
A19C A21U A40C A60C C96G A110G G136U | ≤ -4.2
A19G G25U A47C U78C C96A | ≤ -4.2
C18A A29U G136A | ≤ -4.2
A19G C85G G117A A137G | -2.73
A19G U82G G94A C96U A97U G124U | -2.53
A19G A26G G81C G92A U134A | ≤ -4.2
A19G G50C U148G | ≤ -4.2
A20C A60G | -0.605
C18G A24U U33C A37C U44A C51G C54U G80C U145A | ≤ -4.2
A19C A40U G46A | -0.204
A19U A20U C54G U56A U77C G88U C95G A97C C125A G126A | ≤ -4.2
A19U A23G U90G | -3.99
C18U A29U G68A C85U | ≤ -4.2
C18U A20U G59A G94A U130G A150G | ≤ -4.2
A19C A66G A89U C99U | ≤ -4.2

Variant | polymerase ribozyme fitness (log ratio)
A19C A20G A37G U45C G74C C99A U130C | ≤ -4.2
A19C U56A C57G U77G G88A A97G C118G G141U A142G G152U | ≤ -4.2
A19U A28U G67C U82A C87A A122C U127C U145C | ≤ -4.2
A19G A28G A60G G86C A107G C118U G141U | ≤ -4.2
A19C A49G A60G C79G C87G A98G U111A A113C | ≤ -4.2
A19G C87G G92A U134A | ≤ -4.2
C18U G46C U55G A66C U145G | ≤ -4.2
A19U C38A A47G G48A U55A G124C C125A U144C | ≤ -4.2
A20C C35U G100C A115U A137G U144A C149G | ≤ -4.2
A19U A73G C87G G141U C149G | ≤ -4.2
C18A G141C | -0.603
A19C A60C U102G U109G U151G | ≤ -4.2
C18U A23C A30U G58A A73U U82C C87A A97C G117A G143U A147C A150U | ≤ -4.2
A19C G83U C118U A120G U148G | ≤ -4.2
A19C A21G G50A C76G C96U C99G U104A U146C | ≤ -4.2
A19U G59C A89U G92C A121G | -2.25
A19C C51G C87A G94C | ≤ -4.2
A19U C69G C85U U134G G152U | ≤ -4.2
A19U C69G C96G U104G | -1.98
A19U A21U C87A A106G U139C | ≤ -4.2
C18U A26U G71C U111G | ≤ -4.2
A19U A23C U33G A39C C69U C75G A147G | ≤ -4.2
A19U C27U C43U G50A G65U U77A G100A A120C G141A | ≤ -4.2
C18G C57A C93U U135C U145G | -3.11

Variant | polymerase ribozyme fitness (log ratio)
A19C C79G U102G G140C U146G | ≤ -4.2
A19C G25U U55A C72U G88A G128A G152A | ≤ -4.2
C18A A26G C35U G94U A121G | ≤ -4.2
A20C A47C G59U A91G U109A U144G | ≤ -4.2
C18G A21C C38G A91C | ≤ -4.2
A19U C85G | -2.18
A19C A91C C118G A142C | ≤ -4.2
C18U A24G C27U G68C U127A | ≤ -4.2
A20C C36U C85G C103G | ≤ -4.2
A20C A23U C27A G58U C72A A89G C99A A107C | ≤ -4.2
A19C U61A A107C A120G | ≤ -4.2
A20C C27A A89G C93G U102G C103G C108U A138U | ≤ -4.2
A19C A20U C85U G136A | -0.21
C18G A120C | -1.21
A19U A30U G62C G65C C96A | ≤ -4.2
A19C U53A G71A U78A G92C C116U A142U | ≤ -4.2
A19U A26C A30U C35U A41U G84A U135A | ≤ -4.2
C18U C27U A28C G74U G100U U144G G152C | ≤ -4.2
A20C U31A A41C G48U C93U A97G G112C C116G | ≤ -4.2
A19G A47C C72G A110U | ≤ -4.2
A19G A49C C54A G68A C93A C95A C103U G124A | ≤ -4.2
A20C G25U A28C U44A A66G G67C C95G U135A | ≤ -4.2
A19C A41C G46A G84C C87G C103G | ≤ -4.2
C18G U53G G59A G80U G84A C87G A115G C118G | ≤ -4.2

Variant | polymerase ribozyme fitness (log ratio)
A20C C76G | ≤ -4.2
A19U A37U U44G A66U G92U C96A C123U G124A | ≤ -4.2
A19U U53G C85U C105G C114U | ≤ -4.2
A19G G83A A91C G94C C96G U134G | ≤ -4.2
A19C U56A | 0.406
A20C G59C C79G C85U G117A C132G G143U U148G | ≤ -4.2
A19C A20G A22U A26G A47U C63U C125U | ≤ -4.2
A20C U33C C79G A107U C116U G124C | ≤ -4.2
A20C A39U C43U U61A A142C G143A C149U | ≤ -4.2
A19C G70C C103G | ≤ -4.2
A19C A39U G50A U55A C131U U135G G140U U144A | ≤ -4.2
A19U A28U C63U C85U | ≤ -4.2
A19G A26G G92C | ≤ -4.2
A19G A24U C85A C114A A115G A120G | ≤ -4.2
C18U C57U G86A | -1.67
C18G U45A C85G G92A C132A | ≤ -4.2
C18U G58C G86A U104C | -1.79
C18U G68U G80C G84C A121U A147U | ≤ -4.2
C18U A24U A40C U53A U55A A73U G84C U101G A122G G126A | ≤ -4.2
A19C C36A U56G A91G U144A | ≤ -4.2
A20C C57U G58C A60U U61G C79G C87G A91U G140U | ≤ -4.2
A20C G48U G83U | -2.07
A19C U53A G92A | -3.8
A19C C69A U130G C149U | ≤ -4.2

Variant | polymerase ribozyme fitness (log ratio)
A19U C87U A121C A147U | 0.743
A19C G62U C95U C96A | -2.36
A19U C57A C69A C93G C108G | ≤ -4.2
A20C C38A C51U G58C C76U A137C | ≤ -4.2
A19U C27U C36A G42C G86A G100C C118G | ≤ -4.2
C18A U33A U56A G88A C114U U130A | ≤ -4.2
A19G A41G U45A G86C A142G U144G | ≤ -4.2
A20C U44A U56G A89C A142C | ≤ -4.2
A20C G25U A40U A41C G68U C75G C79A U82G C93A G124A | ≤ -4.2
C18U A60G U82A G141C | -0.334
A20C A24C A40G U53A U104C | ≤ -4.2
A19C C43U U61G A64C U77G C85U A110U C116G | ≤ -4.2
A19G A26C U55G G83U U151C | ≤ -4.2
A20C A29U A66G C93A A121G G136C | ≤ -4.2
A19G A40U A64G U102A U111A U134C | ≤ -4.2
C18G A73U G83U G92C G124A | ≤ -4.2
A19U A40C G88A A89C | ≤ -4.2
A19U U61G C69G U82G G92A A98U C131G | ≤ -4.2
A19U C35U G42U U55G G67A C85G A97C C114G G140U | ≤ -4.2
C18G A24U U55A C69U G74A | -2.16
C18U C51U C87A | ≤ -4.2
A19G A20G A60G C76A A89U C93A | ≤ -4.2
A20C C63G G152A | -2.4
A19C U45A G59U U148A C149G | ≤ -4.2

Variant | polymerase ribozyme fitness (log ratio)
C18G C32G C35U G86U C105G A115C | -4
A19U C79A | ≤ -4.2
A20C A39C C76G C96U U146C | ≤ -4.2
C18U U61A C79A A120G | ≤ -4.2
C18U U56G G59A C93A A137G A147G | ≤ -4.2
C18U A39C C57U G83A C95U U148C C149A | ≤ -4.2
C18G A23C A29G C51U C72G G81A G140U | ≤ -4.2
A19U C51U G58C C85U A91U C114U C118U | ≤ -4.2
C18U C85U | -0.241
A19U A26U C35A A91C G152A | ≤ -4.2
A20C A49C C57A C75G C76U C93A | ≤ -4.2
C18U A24C U44A G62U G65U C85G | ≤ -4.2
A19U A20U C32U G83U C85A G133U | ≤ -4.2
C18G G46A G74C U77A U135C | ≤ -4.2
C18G A30U C35A U61G G62U C93U U111G G124A | ≤ -4.2
C18G G48A A89G C96U A138U | ≤ -4.2
A19G C27U U78C C93U C123G U127C | ≤ -4.2
A19U G59C C85A C95A A115G U151A | ≤ -4.2
A20C C51A G100C | ≤ -4.2
A19C A20G A22C A23C A49U G50A U77A G88C A115G A150G | ≤ -4.2
A19C A24U C35G C38U C75G G88C A91C A98G C131U | ≤ -4.2
C18U U55A C57G A66U U82G G94C A113U | ≤ -4.2
A19C C72A A107U G143A | ≤ -4.2
